# From the supplement of paper PMC11417369
# ± gives the standard deviation of the averaged measurements. The list shows a part of the results.
# Test system: PfAP2-EXP AP2 domain (GST-tagged)
# Assay: gcPBM binding intensity (ln(normalized median fluorescence intensity)); higher = stronger DNA binding
# Outline: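 GST-fused DNA-binding domains of P. falciparum, expressed in E. coli, were applied at about 25 μg on average for 1 h to an Agilent 4 × 180k array of primer-extended double-stranded 36-bp intergenic genomic probes and negative controls. Binding intensity is the highest Masliner-normalised natural-log median intensity across replicate spots of either probe orientation, measured with Alexa488 anti-GST antibody and a 488 nm scan.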
row,Sequence,gcPBM binding intensity (ln)
1,TATTTGTGAAGAAATTGTACTCATATCTACATTTAT [XGTACX_site2245],8.35 ± 0.35
2,TCTTTGTATATATGTTCATTTGTAATATATATTCAT [TGCATGCA_negctrl_site467],8.57 ± 0.39
3,TGATTATTTTATATTTGTACACATATCATATAAAAA [XGTACX_site5868],8.59 ± 0.25
4,ATGCAAACTAAAAGACGTACAGAAAAGTATCATACT [XGTACX_site8766],8.87 ± 0.4
5,ACGTTTTTGAGTAGTACACACACAATAAGGATGGAT [CACACA_site9044],8.96 ± 0.36
6,ACATAATATTGAAGAAGTACAAATTTTATTTATTAT [XGTACX_site4113],8.28 ± 0.27
7,TCATTATTATATAATTGTACATAATAATTATATCCA [XGTACX_site1801],8.33 ± 0.4
8,CCTCATATTATAGACACACACAAAAAAAATAAAAAA [CACACA_site180],8.45 ± 0.57
9,AATATAATATATATTAGTACATATATATATATATAT [XGTACX_site870],10.1 ± 0.29
10,ATGTATGTGTATATATGTACATAATATATATCTTTT [XGTACX_site8666],8.65 ± 0.32
11,TAATTACCATATGGTACACACATATATATCTGTATA [CACACA_site5849],8.73 ± 0.48
12,AATAATATCTGAAAATGTACATTTTATTATAAACAT [XGTACX_site8441],8.62 ± 0.47
13,AAGAAGAGTTATTGTAGTACATTTTTAAATGTAATA [XGTACX_site7664],8.32 ± 0.38
14,AAGAATTATAGAAACACACATACATACAGACATACA [CACACA_site1943],8.95 ± 0.46
15,TATTTGGGTATTTTTACACACATTAATATATATATA [CACACA_site9114],9.39 ± 0.11
16,ATAATGGAAAAAAAATATAATAATACGAAATAGGAA [TGCATGCA_negctrl_site64],8.5 ± 0.21
17,AAAGATAATAATATGCGTACATAAAAATATATGATA [XGTACX_site6884],8.59 ± 0.31
18,TGAATCAATTGTTGCTGTACATAAGGTATACAATAA [XGTACX_site5127],8.73 ± 0.4
19,TTTTTTTAATAAATTTATAACAATATGATAGGTGAC [CACACA_negctrl_site1783],8.88 ± 0.39

row,Sequence,gcPBM binding intensity (ln)
1,AGTTAAATGAATCAATACATAAATATGTATATATAT [TGCATGCA_negctrl_site539],8.59 ± 0.057
2,TGTATACACATATGTACACACATATAGATGTATATG [CACACA_site7447],8.44 ± 0.16
3,TAAATAAATACATACACACACATACCTATATTTATA [CACACA_site7466],8.65 ± 0.45
4,AATATAAATATAAATATAAATATATATATATATATA [TGCATGCA_negctrl_site603],9.97 ± 0.38
5,TTTTATAAAAACAAAAACAAAGGCACTTTCTAAAGA [XGTACX_negctrl_site130],8.7 ± 0.52
6,ATAATGTATATTATTGCACACATATATAAAATTATG [CACACA_site8280],8.55 ± 0.13
7,CATTTTTTGTAAAATCGTACATATACATAAAGTGGT [XGTACX_site3423],8.66 ± 0.34
8,CACAAAAGTAAGCACGCACACACAACATGAAATAAA [CACACA_site7938],8.71 ± 0.52
9,ATATAAAATATGAGTAGTACATATTTTCTCATCTTA [XGTACX_site8595],8.24 ± 0.4
10,GGGAAACGATTTAATACACACACGTATTATATATAT [CACACA_site1160],8.8 ± 0.19
11,AATTTTATTTAAAGTGCATGTAAAATTAAAACTTTT [TGCATGCA_site989],8.54 ± 0.28
12,AAAGACAAAAGGAATTGTACATAATATATAAAATAT [XGTACX_site2923],8.64 ± 0.42
13,TATGAATTTATCTACAACATTTGAAATAAATTAAAA [CACACA_negctrl_site79],8.03 ± 0.45
14,TAACAAATATTATTTTGTACATAATATATATATATA [XGTACX_site6898],9.79 ± 0.18
15,AATACACACCTGTGGGTGCTTATAATAAGCCACAAA,8.91 ± 0.085
16,TATTTTTTTATTTATTGTACTTTAAAAAAAATTAAA [XGTACX_site6167],8.55 ± 0.35
17,TATATATATTAATTTATTTATTTGTTTATTTATTTA [CACACA_negctrl_site185],8.41 ± 0.18
18,ATATATTTATATTATACACACAAAAATATTTTGTAT [CACACA_site6262],8.33 ± 0.35
19,TTATAAAAATATTACGCACACACAAACTTATTCATT [CACACA_site1970],8.58 ± 0.47

row,Sequence,gcPBM binding intensity (ln)
1,ATATAATAATATTATACATGCAAAATATGTTCTTCA [TGCATGCA_site115],9.12 ± 0.44
2,ATCGCATATACATTATATTTTATAATAATTATTTTT [GTGCAC_negctrl_site48],8.8 ± 0.37
3,AGACTATCATTTTTTTAACACACAAAAAAAATAAAA [CACACA_site9173],8.29 ± 0.46
4,GGATATATTATATGTACACACATATATAACGGATAT [CACACA_site1309],8.65 ± 0.35
5,TGTATACCTTAATATACACACATACATATATATATA [CACACA_site8370],9.78 ± 0.2
6,CAACAAAAGAAACACACACACACAAACACAAAAAAA [CACACA_site3389],8.24 ± 0.38
7,ATATATAAATATAGCATACACACAAAAAAATAAAAT [CACACA_site2332],8.92 ± 0.48
8,ATGTAATAAATACTACGTACATATATATGTGTTAAT [XGTACX_site3265],8.63 ± 0.36
9,ATATACATATTTTTGACACACATTAGGAAAATATAT [CACACA_site4123],8.42 ± 0.3
10,TATTATTTATATGATACACACGTACATATACACATA [CACACA_site9275],8.53 ± 0.33
11,TTCATTAAAACGAATACACACATAAATATATAAAAG [CACACA_site4824],8.67 ± 0.27
12,AAATATATATATATTACACACTATATATTTATTTAT [CACACA_site681],8.22 ± 0.31
13,TTAATTCTATACATAAATTATGTTTACATAAAGAAT [GTGCAC_negctrl_site246],8.26 ± 0.33
14,ACAAATAAAAAAATTACACACATATATAATATATAT [CACACA_site1361],8.49 ± 0.26
15,AGTAGTCTGGAGAAAAGTACACAGTATCTGGTAACA [XGTACX_site2034],8.4 ± 0.47
16,AAAAATAAAATAAAATAAAATAAAAATAAAGAAAAA [CACACA_negctrl_site808],8.54 ± 0.42
17,TATTAACTCAATAGCGCACACTTTTAATATTTTATA [CACACA_site4973],8.96 ± 0.16
18,ATTTGACACGTATATGCACACACCCGTAAGTGTCCA [CACACA_site8891],9.09 ± 0.4
